# Experimental data reported in the supplement of paper PMC4604168 (melanoma cell lines).
# Some of the results follow. Many values rest on one well or one pass, so single values are uncertain.
# Key:
# Assay in all cases: cell count relative to DMSO control; melanoma cells; higher = more viable cells
# Conditions in all cases: library dose: low library concentration; 72 h
# COLO792 = test system: COLO792
# COLO800 = test system: COLO800
# COLO829 = test system: COLO829
# G361 = test system: G361
# IPC-298 = test system: IPC-298
# IST-MEL1 = test system: IST-MEL1
# LB2518-MEL = test system: LB2518-MEL
# LOXIMVI = test system: LOXIMVI
# MEL-HO = test system: MEL-HO
# 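Note: cell number obtained by counting DAPI-stained nuclei in high-throughput microscope images with image analysis software, screen run in 1,536-well plates.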
smiles,measurement,setting,value
"CCCS(=O)(=O)Nc1ccc(F)c(C(=O)c2c[nH]c3ncc(Cl)cc23)c1F + CC(C)CCN1c2nc(Nc3cc(F)c(O)c(F)c3)ncc2N(C)C(=O)C1C [BID1870] (first compound 0.08 µM, partner dose 0.2 µM)",cell count,COLO792,91.4%
same,cell count,COLO800,172%
same,cell count,COLO829,95.2%
same,cell count,G361,73.4%
same,cell count,IPC-298,90.9%
same,cell count,IST-MEL1,90.9%
same,cell count,LB2518-MEL,113%
same,cell count,LOXIMVI,89.8%
same,cell count,MEL-HO,90.5%
"NC1(c2ccc(-c3nc4ccn5c(=O)[nH]nc5c4cc3-c3ccccc3)cc2)CCC1 + CO[C@@H]1[C@H](N(C)C(=O)c2ccccc2)C[C@H]2O[C@]1(C)n1c3ccccc3c3c4c(c5c6ccccc6n2c5c31)C(=O)NC4 [Midostaurin] (first compound 0.4 µM, partner dose 0.08 µM)",cell count,COLO792,67.8%
same,cell count,COLO800,65.7%
same,cell count,COLO829,86.3%
same,cell count,G361,84.5%
same,cell count,IPC-298,94.5%
same,cell count,IST-MEL1,84.5%
same,cell count,LOXIMVI,70.6%
same,cell count,MEL-HO,61.4%
"CN(c1ncccc1CNc1nc(Nc2ccc3c(c2)CC(=O)N3)ncc1C(F)(F)F)S(C)(=O)=O + Cn1cc(/C=C2\C(=O)Nc3cccnc32)c2ccccc21 [GW441756] (first compound 0.08 µM, partner dose 0.4 µM)",cell count,COLO792,86.9%
same,cell count,COLO800,88.9%
same,cell count,COLO829,89%
same,cell count,G361,85.4%
same,cell count,IPC-298,95%
same,cell count,IST-MEL1,91.9%
same,cell count,LB2518-MEL,108%
same,cell count,LOXIMVI,94.1%
same,cell count,MEL-HO,75.5%
"C=C(c1ccc(C(=O)O)cc1)c1cc2c(cc1C)C(C)(C)CCC2(C)C [Bexarotene] + Cc1cc(N2CCOCC2)cc2[nH]c(-c3c(NC[C@@H](O)c4cccc(Cl)c4)cc[nH]c3=O)nc12 [BMS536924] (first compound 2 µM, partner dose 0.2 µM)",cell count,COLO792,88.7%
same,cell count,COLO800,61.9%
same,cell count,COLO829,88%
same,cell count,G361,76.7%
same,cell count,IPC-298,92%
same,cell count,IST-MEL1,87.1%
same,cell count,LB2518-MEL,90.2%
same,cell count,LOXIMVI,188%
same,cell count,MEL-HO,85.6%
"NC1(c2ccc(-c3nc4ccn5c(=O)[nH]nc5c4cc3-c3ccccc3)cc2)CCC1 + COc1cc2c(Oc3ccc4[nH]c(C)cc4c3F)ncnc2cc1OCCCN1CCCC1 [cediranib] (first compound 0.4 µM, partner dose 0.4 µM)",cell count,COLO792,76.7%
same,cell count,COLO800,143%
same,cell count,COLO829,101%
same,cell count,G361,107%
same,cell count,IPC-298,92.2%
same,cell count,IST-MEL1,93.2%
same,cell count,LB2518-MEL,93.8%
same,cell count,LOXIMVI,107%
same,cell count,MEL-HO,79.5%
"CCCS(=O)(=O)Nc1ccc(F)c(C(=O)c2c[nH]c3ncc(Cl)cc23)c1F + Cn1cncc1[C@@](N)(c1ccc(Cl)cc1)c1ccc2c(c1)c(-c1cccc(Cl)c1)cc(=O)n2C [tipifarnib] (first compound 0.08 µM, partner dose 0.01 µM)",cell count,COLO792,99.8%
same,cell count,COLO800,74.6%
same,cell count,COLO829,95.3%
same,cell count,G361,91.7%
same,cell count,IPC-298,93.9%
same,cell count,IST-MEL1,84.7%
same,cell count,LB2518-MEL,94.9%
same,cell count,LOXIMVI,87.9%
same,cell count,MEL-HO,91.6%
"CCCS(=O)(=O)Nc1ccc(F)c(C(=O)c2c[nH]c3ncc(Cl)cc23)c1F + O=C1NC(=O)/C(=C/c2ccc(-c3ccc(F)cc3O)o2)S1 [AS252424] (first compound 0.08 µM, partner dose 1 µM)",cell count,COLO792,98.5%
same,cell count,COLO800,120%
same,cell count,COLO829,86.9%
same,cell count,G361,76.2%
same,cell count,IPC-298,92.6%
same,cell count,IST-MEL1,103%
same,cell count,LB2518-MEL,106%
same,cell count,LOXIMVI,78.3%
same,cell count,MEL-HO,73.1%
"CCCS(=O)(=O)Nc1ccc(F)c(C(=O)c2c[nH]c3ncc(Cl)cc23)c1F + NC(=O)Nc1cc(-c2cccc(F)c2)sc1C(=O)N[C@H]1CCCNC1 [AZD7762] (first compound 0.08 µM, partner dose 0.02 µM)",cell count,COLO792,109%
same,cell count,COLO800,84.6%
same,cell count,COLO829,123%
same,cell count,G361,91.7%
same,cell count,IPC-298,102%
same,cell count,IST-MEL1,95.1%
same,cell count,LOXIMVI,133%
same,cell count,MEL-HO,106%
"C=C(c1ccc(C(=O)O)cc1)c1cc2c(cc1C)C(C)(C)CCC2(C)C [Bexarotene] + CC1(C)NC(=O)N(c2ccc([N+](=O)[O-])c(C(F)(F)F)c2)C1=O [nilutamide] (first compound 2 µM, partner dose 1 µM)",cell count,COLO792,90.1%
same,cell count,COLO800,192%
same,cell count,COLO829,97.9%
same,cell count,G361,82.7%
same,cell count,IPC-298,97.1%
same,cell count,IST-MEL1,100%
same,cell count,LB2518-MEL,95.2%
same,cell count,LOXIMVI,86.9%
same,cell count,MEL-HO,92.4%
"CCCS(=O)(=O)Nc1ccc(F)c(C(=O)c2c[nH]c3ncc(Cl)cc23)c1F + Cc1cc(N2CCOCC2)cc2[nH]c(-c3c(NC[C@@H](O)c4cccc(Cl)c4)cc[nH]c3=O)nc12 [BMS536924] (first compound 0.08 µM, partner dose 0.2 µM)",cell count,COLO792,87.8%
same,cell count,COLO800,55.5%
same,cell count,COLO829,99.3%
same,cell count,G361,68.2%
same,cell count,IPC-298,90.7%
same,cell count,IST-MEL1,95.6%
same,cell count,LOXIMVI,107%
same,cell count,MEL-HO,106%
"CS(=O)(=O)c1ccc(C(=O)Nc2ccc(Cl)c(-c3ccccn3)c2)c(Cl)c1 [vismodegib] + CC1(C)NC(=O)N(c2ccc([N+](=O)[O-])c(C(F)(F)F)c2)C1=O [nilutamide] (first compound 1 µM, partner dose 1 µM)",cell count,COLO792,95%
same,cell count,COLO800,140%
same,cell count,COLO829,87.1%
same,cell count,G361,107%
same,cell count,IPC-298,95.4%
same,cell count,IST-MEL1,99.3%
same,cell count,LB2518-MEL,102%
same,cell count,LOXIMVI,97.7%
same,cell count,MEL-HO,98.9%
"NC1(c2ccc(-c3nc4ccn5c(=O)[nH]nc5c4cc3-c3ccccc3)cc2)CCC1 + Cc1cc([N+](=O)[O-])ccc1NS(=O)(=O)c1cc(Cl)ccc1Cl [FH535] (first compound 0.4 µM, partner dose 1 µM)",cell count,COLO792,67.9%
same,cell count,COLO800,79.4%
same,cell count,COLO829,85.2%
same,cell count,G361,91.1%
same,cell count,IPC-298,87.5%
same,cell count,IST-MEL1,91.2%
same,cell count,LB2518-MEL,80.6%
same,cell count,LOXIMVI,97.8%
same,cell count,MEL-HO,79%
"CN(c1ncccc1CNc1nc(Nc2ccc3c(c2)CC(=O)N3)ncc1C(F)(F)F)S(C)(=O)=O + Cc1cc([N+](=O)[O-])ccc1NS(=O)(=O)c1cc(Cl)ccc1Cl [FH535] (first compound 0.08 µM, partner dose 1 µM)",cell count,COLO792,73.9%
same,cell count,COLO800,110%
same,cell count,COLO829,82.9%
same,cell count,G361,98.3%
same,cell count,IPC-298,95.7%
same,cell count,IST-MEL1,86.6%
same,cell count,LB2518-MEL,82.2%
same,cell count,LOXIMVI,93.1%
same,cell count,MEL-HO,90.2%
"NC1(c2ccc(-c3nc4ccn5c(=O)[nH]nc5c4cc3-c3ccccc3)cc2)CCC1 + O=c1cc(-c2cccc3c2Sc2ccccc2S3)oc(N2CCOCC2)c1 [KU55933] (first compound 0.4 µM, partner dose 1 µM)",cell count,COLO792,72.8%
same,cell count,COLO800,88.1%
same,cell count,COLO829,123%
same,cell count,G361,100%
same,cell count,IPC-298,103%
same,cell count,IST-MEL1,85.8%
same,cell count,LB2518-MEL,113%
same,cell count,LOXIMVI,145%
same,cell count,MEL-HO,81%
"CS(=O)(=O)c1ccc(C(=O)Nc2ccc(Cl)c(-c3ccccn3)c2)c(Cl)c1 [vismodegib] + O=C(O)C(=O)Nc1sc2c(c1C(=O)O)CCNC2 [TCS401] (first compound 1 µM, partner dose 1.66667 µM)",cell count,COLO792,94.1%
same,cell count,COLO800,90.2%
same,cell count,COLO829,109%
same,cell count,G361,104%
same,cell count,IPC-298,102%
same,cell count,IST-MEL1,109%
same,cell count,LB2518-MEL,105%
same,cell count,LOXIMVI,76%
same,cell count,MEL-HO,99.3%
"CS(=O)(=O)c1ccc(C(=O)Nc2ccc(Cl)c(-c3ccccn3)c2)c(Cl)c1 [vismodegib] + CN(NC(=O)CC(=O)NN(C)C(=S)c1ccccc1)C(=S)c1ccccc1 [STA4783] (first compound 1 µM, partner dose 0.006 µM)",cell count,COLO792,64.6%
same,cell count,COLO800,60.3%
same,cell count,COLO829,60.2%
same,cell count,G361,81.9%
same,cell count,IPC-298,101%
same,cell count,IST-MEL1,77.7%
same,cell count,LOXIMVI,78%
same,cell count,MEL-HO,101%
"NC1(c2ccc(-c3nc4ccn5c(=O)[nH]nc5c4cc3-c3ccccc3)cc2)CCC1 + CC(C)(C)c1cnc(CSc2cnc(NC(=O)C3CCNCC3)s2)o1 [SNS-032] (first compound 0.4 µM, partner dose 0.01 µM)",cell count,COLO792,56.3%
same,cell count,COLO800,66.1%
same,cell count,COLO829,91.1%
same,cell count,G361,101%
same,cell count,IPC-298,103%
same,cell count,IST-MEL1,95.1%
same,cell count,LB2518-MEL,81.3%
same,cell count,LOXIMVI,120%
same,cell count,MEL-HO,77.4%
"CN(c1ncccc1CNc1nc(Nc2ccc3c(c2)CC(=O)N3)ncc1C(F)(F)F)S(C)(=O)=O + COc1cc2c(Oc3ccc4[nH]c(C)cc4c3F)ncnc2cc1OCCCN1CCCC1 [cediranib] (first compound 0.08 µM, partner dose 0.4 µM)",cell count,COLO792,70.1%
same,cell count,COLO800,96.1%
same,cell count,COLO829,62.2%
same,cell count,G361,91.6%
same,cell count,IPC-298,99.3%
same,cell count,IST-MEL1,99.1%
same,cell count,LOXIMVI,88.4%
same,cell count,MEL-HO,79.5%
"CN(c1ncccc1CNc1nc(Nc2ccc3c(c2)CC(=O)N3)ncc1C(F)(F)F)S(C)(=O)=O + COc1ccc(COc2ccc(Cc3cnc(N)nc3N)cc2OC)cc1 [GW2580] (first compound 0.08 µM, partner dose 1 µM)",cell count,COLO792,91.1%
same,cell count,COLO800,99.8%
same,cell count,COLO829,103%
same,cell count,G361,90.3%
same,cell count,IPC-298,91.5%
same,cell count,IST-MEL1,94%
same,cell count,LB2518-MEL,115%
same,cell count,LOXIMVI,87.7%
same,cell count,MEL-HO,85.5%
"CN(c1ncccc1CNc1nc(Nc2ccc3c(c2)CC(=O)N3)ncc1C(F)(F)F)S(C)(=O)=O + NC(=O)Nc1cc(-c2cccc(F)c2)sc1C(=O)N[C@H]1CCCNC1 [AZD7762] (first compound 0.08 µM, partner dose 0.02 µM)",cell count,COLO792,76.2%
same,cell count,COLO800,121%
same,cell count,COLO829,104%
same,cell count,G361,118%
same,cell count,IPC-298,103%
same,cell count,IST-MEL1,99.8%
same,cell count,LB2518-MEL,129%
same,cell count,LOXIMVI,92.7%
same,cell count,MEL-HO,85.5%
"CCCS(=O)(=O)Nc1ccc(F)c(C(=O)c2c[nH]c3ncc(Cl)cc23)c1F + O=C(CCCCCCC(=O)Nc1ccccc1)NO [vorinostat] (first compound 0.08 µM, partner dose 0.08 µM)",cell count,COLO792,107%
same,cell count,COLO800,87.3%
same,cell count,COLO829,101%
same,cell count,G361,81.3%
same,cell count,IPC-298,92.8%
same,cell count,IST-MEL1,102%
same,cell count,LB2518-MEL,123%
same,cell count,LOXIMVI,102%
same,cell count,MEL-HO,81.2%
"CCCS(=O)(=O)Nc1ccc(F)c(C(=O)c2c[nH]c3ncc(Cl)cc23)c1F + COc1cc2c(Oc3ccc4[nH]c(C)cc4c3F)ncnc2cc1OCCCN1CCCC1 [cediranib] (first compound 0.08 µM, partner dose 0.4 µM)",cell count,COLO792,85.3%
same,cell count,COLO800,83.4%
same,cell count,COLO829,106%
same,cell count,G361,77.5%
same,cell count,IPC-298,83.9%
same,cell count,IST-MEL1,87.6%
same,cell count,LOXIMVI,135%
same,cell count,MEL-HO,89.7%
